According to publication PMC5681660, “Reduced hepatitis B and D viral entry using clinically applied drugs as novel inhibitors of the bile acid transporter NTCP” (Scientific Reports, 2017):

Columns and labels:
human NTCP [1] = biological target: T1, human NTCP (Homo sapiens, UniProt Q14973); assay: Screening taurocholate uptake assay (96-well, [14C]taurocholate, 10 µM drug); details: for remaining activity at 10 µM: 10 min, read-out: %NTCP activity
T1 sequence (Q14973 1-349): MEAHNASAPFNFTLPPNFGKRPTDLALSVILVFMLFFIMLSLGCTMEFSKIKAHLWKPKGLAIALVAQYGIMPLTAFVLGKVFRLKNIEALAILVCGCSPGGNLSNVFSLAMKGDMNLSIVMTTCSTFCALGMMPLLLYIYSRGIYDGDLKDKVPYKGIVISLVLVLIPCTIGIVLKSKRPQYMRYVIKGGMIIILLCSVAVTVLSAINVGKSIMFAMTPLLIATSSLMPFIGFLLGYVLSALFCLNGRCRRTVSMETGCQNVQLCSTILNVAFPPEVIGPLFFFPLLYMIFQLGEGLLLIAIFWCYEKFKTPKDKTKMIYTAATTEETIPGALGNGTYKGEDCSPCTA

human NTCP [2] = biological target: T1, human NTCP; assay: Screening fluorescent competitive Myrcludex B-FITC binding assay (96-well, 10 µM drug)
[3] = screen, 10 µM drug, Myrcludex B-FITC binding
[4] = Prestwick library screen, 10 µM drug, [14C]taurocholate uptake
[5] = Prestwick library screen, 10 µM drug, Myrcludex B-FITC binding
[6] = Prestwick library screen, [14C]taurocholate uptake, 10 µM drug
[7] = Prestwick library screen, Myrcludex B-FITC binding, 10 µM drug

Row | SMILES | remaining activity at 10 µM (human NTCP [1]) [%] | remaining activity at 10 µM (human NTCP [2]; 0.5 h, read-out: %NTCP binding) [%] | further results
1 | COc1ccccc1N1CCN(CCCCNC(=O)c2ccc3ccccc3c2)CC1.Cl.Cl [DO 897/99] |  |  | %NTCP activity (human NTCP [1]): 41.0079%; %NTCP binding (human NTCP [2]; [3]): 61.1516%
2 | O.O=P(O)(O)C(O)(Cc1cccnc1)P(=O)(O)O [Risedronic acid monohydrate] |  |  | %NTCP activity (human NTCP [1]; [4]): 115.113%; %NTCP binding (human NTCP [2]; [5]): 58.0818%
3 | COc1ccc2[nH]c([S+]([O-])Cc3ncc(C)c(OC)c3C)nc2c1 (centres unmarked) [Omeprazole] | 51.5 | 75.2 | 
4 | CN1CCN2c3ccccc3Cc3ccccc3C2C1.Cl (centres unmarked) [Mianserine hydrochloride] |  |  | %NTCP activity (human NTCP [1]; [6]): 81.404%; %NTCP binding (human NTCP [2]; [7]): 90.6884%
5 | CCOC(=O)C(C)(C)Oc1ccc(Cl)cc1 [Clofibrate] | 87.5 | 103 | 
6 | CC(C)NCC(O)c1ccc(NS(C)(=O)=O)cc1 (centres unmarked) [Sotalol hydrochloride] | 58.5 | 126 | 
7 | CCCNC(C)C(=O)Nc1c(C)csc1C(=O)OC (centres unmarked) [Articaine hydrochloride] | 80.1 | 83.8 | 
8 | CCN(CC)CCOC(=O)C(Cc1cccc2ccccc12)CC1CCCO1 (centres unmarked) [Nafronyl oxalate] | 79.3 | 78.8 | 
9 | CCCCC(C)(O)C/C=C/[C@H]1[C@H](O)CC(=O)[C@@H]1CCCCCCC(=O)OC (mixture of isomers) [Misoprostol] | 124 | 99.3 | 
10 | CCCCC1C(=O)N(c2ccccc2)N(c2ccccc2)C1=O [Phenylbutazone] | 57.1 | 85.3 | 
11 | CCN1CCCC1CNC(=O)c1cc(S(N)(=O)=O)ccc1OC (centres unmarked) [Sulpiride] | 96.3 | 111 | 
12 | Cc1cn([C@H]2C[C@H](N=[N+]=[N-])[C@@H](CO)O2)c(=O)[nH]c1=O [Zidovudine, AZT] |  |  | %NTCP activity (human NTCP [1]; [4]): 81.2022%; %NTCP binding (human NTCP [2]; [5]): 82.6125%
13 | COc1ccc(-c2ccc3cc(C(=O)O)ccc3c2)cc1C12CC3CC(CC(C3)C1)C2 [Adapalene] | 97.3 | 71.2 | 
14 | CN1C2CCCC1CC(NC(=O)c1nn(C)c3ccccc13)C2 (centres unmarked) [Granisetron] | 131 | 87.5 | 
15 | CCN[C@@H](C)Cc1cccc(C(F)(F)F)c1 [Dexfenfluramine hydrochloride] | 119 |  | remaining activity at 10 µM (human NTCP [2]; 0.5 h, read-out: %NTCP binding, screen, 10 µM drug, Myrcludex B-FITC binding): 74.6%
16 | Br.COc1ccc2c(c1)[C@]13CCCC[C@@H]1[C@H](C2)N(C)CC3.O |  |  | %NTCP activity (human NTCP [1]): 49.565%; %NTCP binding (human NTCP [2]; [5]): 72.4571%
17 | CCCCOC(=O)c1ccc(N)cc1 [Butamben] | 122 | 106 | 
18 | C[C@]12CC[C@H]3[C@@H](CCC4=CC(=O)CC[C@@H]43)[C@@H]1CC[C@@H]2O [Nandrolone] | 72.9 | 113 | 
19 | CO[C@]12C[C@@H](COC(=O)c3cncc(Br)c3)CN(C)[C@@H]1Cc1cn(C)c3cccc2c13 [Nicergoline] | 56.1 | 82.1 | 
20 | C[C@]12CCC(=O)C=C1CC[C@@H]1[C@@H]2C(=O)C[C@]2(C)C(=O)CC[C@@H]12 [Adrenosterone] |  |  | %NTCP activity (human NTCP [1]): 49.5258%; %NTCP binding (human NTCP [2]; [3]): 105.605%
21 | COc1ccc2cc(CCC(C)=O)ccc2c1 [Nabumetone] | 49.5 | 107 | 
22 | COc1ccc(C(=O)NCc2ccc(OCCN(C)C)cc2)cc1OC [Itopride] | 58.9 | 50 | 
23 | CC(C[N+](C)(C)C)OC(N)=O (centres unmarked) [Bethanechol chloride] | 113 | 93.2 | 
24 | CC(C)(Sc1cc(C(C)(C)C)c(O)c(C(C)(C)C)c1)Sc1cc(C(C)(C)C)c(O)c(C(C)(C)C)c1 [Probucol] | 70 | 73.5 | 
25 | C[C@]12CC[C@@H]3c4ccc(O)cc4CC[C@H]3[C@@H]1C[C@@H](O)[C@@H]2O [Estriol] | 106 | 97.7 | 
26 | OC(c1cc(C(F)(F)F)nc2c(C(F)(F)F)cccc12)C1CCCCN1 (centres unmarked) [Mefloquine hydrochloride] | 84 | 75.1 | 

Row | SMILES | remaining activity at 10 µM (human NTCP [1]) [%] | remaining activity at 10 µM (human NTCP [2]; 0.5 h, read-out: %NTCP binding) [%] | further results
27 | CC(=O)Nc1ccc(CC(=O)O)cc1 [Actarit] | 94.2 | 90.9 | 
28 | CC(=O)OC[C@H]1O[C@@H]([S-])[C@H](OC(C)=O)[C@@H](OC(C)=O)[C@@H]1OC(C)=O.CCP(CC)CC.[Au+] [Auranofin] |  |  | %NTCP activity (human NTCP [1]): 73.6201%; %NTCP binding (human NTCP [2]; [7]): 109.797%
29 | Cn1c([N+](=O)[O-])cnc1COC(N)=O [Ronidazole] | 86 | 81.7 | 
30 | CN(C)CC/C=C1/c2ccccc2COc2ccc(CC(=O)O)cc21 [Olopatadine hydrochloride] | 118 | 99.5 | 
31 | COc1ccc2c(c1)N(C[C@H](C)CN(C)C)c1ccccc1S2.O=C(O)/C=C\C(=O)O [Methotrimeprazine maleat salt] |  |  | %NTCP activity (human NTCP [1]; [6]): 117.482%; %NTCP binding (human NTCP [2]; [7]): 62.4454%
32 | Cc1c(OCC(F)(F)F)ccnc1C[S+]([O-])c1nc2ccccc2[nH]1 (centres unmarked) [Lansoprazole] | 63.6 | 92.5 | 
33 | CC(=O)Nc1nnc(S(N)(=O)=O)s1 [Acetazolamide] | 177 | 109 | 
34 | CN[C@@H]1[C@@H](O[C@H]2O[C@H](CO)[C@@H](N)[C@H](O)[C@H]2O)OC2C[C@@H](N)[C@@H](O[C@H]3[C@H](O)[C@@H](O)[C@H](N)C[C@@H]3N)OC2[C@@H]1O (some centres unmarked) [Apramycin] | 73.7 | 85.4 | 
35 | NS(=O)(=O)c1cc2c(cc1C(F)(F)F)NCNS2(=O)=O [Hydroflumethiazide] | 154 | 105 | 
36 | CO[C@H]1/C=C/O[C@@]2(C)Oc3c(C)c(O)c4c(O)c(c5c(nc6cc(C)ccn65)c4c3C2=O)NC(=O)/C(C)=C\C=C\[C@H](C)[C@H](O)[C@@H](C)[C@@H](O)[C@@H](C)[C@H](OC(C)=O)[C@@H]1C [Rifaximin] | 109 | 86.5 | 
37 | Nc1ccn([C@@H]2O[C@H](CO)[C@@H](O)[C@@H]2O)c(=O)n1 [Cytarabine] | 139 | 82.8 | 
38 | CN1CCN(c2c(F)cc3c(=O)c(C(=O)O)cn(CCF)c3c2F)CC1 [Fleroxacin] | 77.7 | 93.6 | 
39 | CCCNC(=O)NS(=O)(=O)c1ccc(Cl)cc1 [Chlorpropamide] | 72.1 | 77.7 | 
40 | COC(=O)C1=C(C)NC(C)=C(C(=O)O[C@@H]2CCCN(Cc3ccccc3)C2)[C@@H]1c1cccc([N+](=O)[O-])c1.Cl (racemic) [Benidipine hydrochloride] |  |  | %NTCP activity (human NTCP [1]): 53.5157%; %NTCP binding (human NTCP [2]; [3]): 79.0898%
41 | Oc1ccc2c3c1O[C@H]1[C@@H](O)CC[C@@]4(O)[C@@H](C2)N(CC2CCC2)CC[C@]314 [Nalbuphine hydrochloride] | 38.8 | 89.7 | 
42 | CC1(C)O[C@@H]2[C@@H](CO[C@@]3(COS(N)(=O)=O)OC(C)(C)O[C@@H]23)O1 [Topiramate] | 75.3 | 79.5 | 
43 | O=C(CCCN1CCN(c2ccccn2)CC1)c1ccc(F)cc1 [Azaperone] | 137 | 86.6 | 
44 | C[C@H]1O[C@H](O[C@H]2[C@H](O)[C@@H](O)[C@@H](O[C@H]3[C@H](O)[C@@H](O)C(O)O[C@@H]3CO)O[C@@H]2CO)[C@H](O)[C@@H](O)[C@@H]1N[C@H]1C=C(CO)[C@@H](O)[C@H](O)[C@H]1O (some centres unmarked) [Acarbose] | 138 | 80.8 | 
45 | C[C@]12C=CC(=O)C=C1CC[C@@H]1[C@@H]2[C@@H](O)C[C@@]2(C)[C@H]1CC[C@]2(O)C(=O)CO [Prednisolone] | 20.9 | 84 | 
46 | CC[N+](CC)(CC)CCOc1cccc(OCC[N+](CC)(CC)CC)c1OCC[N+](CC)(CC)CC [Gallamine triethiodide] | 104 | 70.1 | 
47 | CO[C@@]1(NC(=O)C2SC(=C(C(N)=O)C(=O)O)S2)C(=O)N2C(C(=O)O)=C(CSc3nnnn3C)CS[C@@H]21 (some centres unmarked) [Cefotetan] | 79.2 | 53.1 | 
48 | CC(=O)Oc1ccccc1C(=O)O [Acetylsalicylic acid] | 142 | 96.4 | 
49 | COc1ccc(C[C@@H](C)NC[C@H](O)c2ccc(O)c(NC=O)c2)cc1.COc1ccc(C[C@@H](C)NC[C@H](O)c2ccc(O)c(NC=O)c2)cc1.O=C(O)/C=C/C(=O)O [Formoterol fumarate] |  |  | %NTCP activity (human NTCP [1]): 118.412%; %NTCP binding (human NTCP [2]; [7]): 87.3803%
50 | CC(=O)c1ccc2c(c1)N(CCCN1CCC(CCO)CC1)c1ccccc1S2 [Piperacetazine] | 114 | 90.1 | 
51 | CO[C@@]1(NC(=O)C(C(=O)O)c2ccc(O)cc2)C(=O)N2C(C(=O)O)=C(CSc3nnnn3C)CO[C@@H]21 (some centres unmarked) [Moxalactam disodium salt] | 87.9 | 118 | 
52 | CC(C)NCC(O)c1ccc(O)c(O)c1.Cl (single isomer, unassigned; (-)) [(-)-Isoproterenol hydrochloride] |  |  | %NTCP activity (human NTCP [1]; [4]): 140.466%; %NTCP binding (human NTCP [2]; [5]): 95.4986%

Structures can show the parent of a compound that is named as a salt. Where two headings read alike, the source gives them in different places.
